# In the RNAGym collection of RNA variant scans (doi:10.1073/pnas.2313332121):
# Variants at the floor of the assay are shown more often than the library holds them.
# B1: TPR 5TU (parent)
# chain: GGAUCUUCUCGAUCUAACAAAAAAGACAAAUCUGCCACAAAGCUUGAGAGCAUCUUCGGAUGCAGAGGCGGCAGCCUUCGGUGGCGCGAUAGCGCCAACGUUCUCAACUAUGACACGCAAAACGCGUGCUCCGUUGAAUGGAGUUUAUCAUG
# Variants of: B1
# Experiment: polymerase ribozyme fitness, log enrichment relative to wild type (log ratio); higher = more active; in vitro selection for triplet polymerase activity
# How it was run: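 After PCR construction and transcription, each subunit's mutant library from a heterodimeric triplet polymerase ribozyme was annealed with a biotinylated primer, the partner subunit and triplets. Incubation was frozen, at −7 °C, and extended constructs were gel-excised, bound to streptavidin beads and amplified by RT-PCR, in one selection round done in triplicate. Fitness is the logarithm of a genotype's enrichment divided by that of the wild type, from inverse-variance-weighted replicate averages of Illumina-sequenced inputs and outputs. The base of the logarithm is 2, and genotypes needed ≥10 input reads and ≥1 read per output.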
row,Variant,polymerase ribozyme fitness (log ratio)
1,U6G A17G A26G A91U U145G U148C A150C,≤ -4.2
2,U6G A19G A24G G58A U90G C96G U102G G136C,≤ -4.2
3,U6G A19U A20C A110C,≤ -4.2
4,U6G A20U A73U U134C U145G,-3.22
5,U6G A20U C93A C116A U135A,-3.29
6,U6G A20U G58A G86A C116G U144A,≤ -4.2
7,U6G A21U C57G G71U A91U U139A,≤ -4.2
8,U6G A22G U139A,≤ -4.2
9,U6G A22U A40G C57A G94A,-2.43
10,U6G A22U U90G A97C U102G U109C,≤ -4.2
11,U6G A23G G48U G50C G68A U78G U101A,≤ -4.2
12,U6G A23U C57U C85A G117U,≤ -4.2
13,U6G A24U A119U G136U,-3.74
14,U6G A28C A40G A52C A147G A150C,≤ -4.2
15,U6G A28G A40U G92C,≤ -4.2
16,U6G A29U A73G U77C C95U A107U,≤ -4.2
17,U6G A30U A73U G74C G86U C87A C118U C149A,≤ -4.2
18,U6G A37C C105U A107G G141C,≤ -4.2
19,U6G A37U U44A U45A C57U,≤ -4.2
20,U6G A40U G84A U102C A106G G128C,≤ -4.2
21,U6G A40U U56A C93U A106C,-1.92

row,Variant,polymerase ribozyme fitness (log ratio)
1,U6G A47C U55A G68A G81C C93A C96G U101C U109A,≤ -4.2
2,U6G A52G U56C G62C C87U C96U,≤ -4.2
3,U6G A52G U90A C99U U134C,≤ -4.2
4,U6G A89U A138U,≤ -4.2
5,U6G A122C,-0.304
6,U6G C8G A47C G59U A91C C96G C132G G133A,≤ -4.2
7,U6G C8G C43G C85U A97U G126A G143C,≤ -4.2
8,U6G C8G G84A A137C U144C,≤ -4.2
9,U6G C8U A16U A29U G48A C72U U139C,≤ -4.2
10,U6G C8U G94A C105G C118A G140A,≤ -4.2
11,U6G C10G A19G U55G C85A G128C G152U,≤ -4.2
12,U6G C10G A49C U53A U55A U109G A115G G126C,≤ -4.2
13,U6G C10G G58U G59C U61A C63A C99U,≤ -4.2
14,U6G C10U U15C A16G A21C G34U C54U C93A,≤ -4.2
15,U6G C14A A17C C32U C93A A98G,≤ -4.2
16,U6G C14A C54A G80C A138G,≤ -4.2
17,U6G C14G G25U G74U,≤ -4.2
18,U6G C27A C32G C69G C85A G126U U127G G143C G152U,≤ -4.2
19,U6G C27A U33C C85A G88A U134C,≤ -4.2
20,U6G C27U A37G C79U G80C C85U U101G A107U A119U G126U,≤ -4.2
21,U6G C35A C38U G48A C79G A91U A98G C103A C125U A142G G143A,≤ -4.2

row,Variant,polymerase ribozyme fitness (log ratio)
1,U6G C38U U45A G50C U55A G65U A73G C95A C108G,≤ -4.2
2,U6G C51U G84A U146G,-1.28
3,U6G C69U G84A A106C,-2.47
4,U6G C75G A142U,≤ -4.2
5,U6G C85A,-1.09
6,U6G C85A C87G A98U A106C U148A,≤ -4.2
7,U6G C87G,-3.6
8,U6G C87U C131U,0.928
9,U6G C93A,-1.75
10,U6G G48C C76A,≤ -4.2
11,U6G G48U G58A C76G U82C C93U A122C A138G A142G,≤ -4.2
12,U6G G59C A66G A120U,≤ -4.2
13,U6G G65U G71C G94A C103G A122G,≤ -4.2
14,U6G G71C G86A U109G,≤ -4.2
15,U6G G83A,-0.0531
16,U6G G86C U135G,≤ -4.2
17,U6G U9C A12C U45A C76G A91C C96G,≤ -4.2
18,U6G U9G A28U U56A G59A A142C U146G,≤ -4.2
19,U6G U15G A40G A49U C76A C79A G92U,≤ -4.2
20,U6G U33G C57G G83A U127A,≤ -4.2
21,U6G U44G A47U U53C A64C C103A,≤ -4.2

row,Variant,polymerase ribozyme fitness (log ratio)
1,U6G U44G C54G C93G C95U G133A,≤ -4.2
2,U6G U53A A64U C85A G124A,≤ -4.2
3,U6G U53A G59C U90C C131U,≤ -4.2
4,U6G U53C G92C U144C,-1.5
5,U6G U55G G92A,-3.71
6,U6G U78A G84U A91C C108A A121C,≤ -4.2
7,U6G U78G C93U A98G A142C,-3.99
8,U6G U134C,-0.128
9,U7A A16U A20G G48A C57A G58U A64G C87A G92U G126A C129A A137C,≤ -4.2
10,U7A A17C A142C,-3.31
11,U7A A17U A22C U33C A49C U77G G100A A121G U127C,≤ -4.2
12,U7A A17U A23U A37C U55A C93U C95U,≤ -4.2
13,U7A A19C A21G C95G A98G C125G A147U,≤ -4.2
14,U7A A19G C43G G83U G88U U90A A115C,≤ -4.2
15,U7A A20C C93G C116G U135G,≤ -4.2
16,U7A A20U U31G C116U,-3.58
17,U7A A21C C54A G86C C114G A120U,≤ -4.2
18,U7A A22G C72A A122U C131A,≤ -4.2
19,U7A A26G C75G C93A,-4.13
20,U7A A26G U31C G50U A73C G86A U104G,≤ -4.2
21,U7A A28C G34C C38U A41U C76U C87U,≤ -4.2
